# Measured values from PubChem BioAssay AID2675 (National Center for Advancing Translational Sciences (NCATS), 2010).
# Screen size: about 280,000 compounds; about 100 (0.036%) were called active. The inconclusive results got no clear call from the source; some entries with a clear call stand among them for comparison. Calls come from the whole dose curve; as a rule, active = well fitted inhibition curve with a large enough effect in the signal ratio, with a control signal flat (not every such curve was filed as active); inconclusive = small, poorly fitted or top-dose-only effect, or effect the other way, or a change in a side signal; inactive = no such curve, though single readings can be large or run the other way; the % refers to the signal ratio. Where the call is inconclusive, the potency comes from a doubtful curve fit. A note “side channel” means that the fit belongs to a control or component signal, not to the main read-out.
# Target: Muscleblind-like protein 1 (Homo sapiens) (UniProt Q9NR56)
# Chain of UniProt Q9NR56 (Q9NR56 whole entry, looked up): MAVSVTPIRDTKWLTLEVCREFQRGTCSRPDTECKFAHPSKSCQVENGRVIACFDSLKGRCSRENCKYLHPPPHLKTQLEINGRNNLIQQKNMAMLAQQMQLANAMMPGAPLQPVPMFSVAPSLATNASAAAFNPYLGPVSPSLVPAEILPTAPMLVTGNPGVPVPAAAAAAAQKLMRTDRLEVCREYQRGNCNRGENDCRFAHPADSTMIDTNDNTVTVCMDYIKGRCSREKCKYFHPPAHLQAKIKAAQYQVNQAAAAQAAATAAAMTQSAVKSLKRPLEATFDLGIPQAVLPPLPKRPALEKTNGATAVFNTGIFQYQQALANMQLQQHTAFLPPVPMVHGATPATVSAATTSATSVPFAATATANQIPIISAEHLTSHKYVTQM
# Assay: qHTS Assay for Inhibitors of MBNL1-poly(CUG) RNA binding
# Conditions: TR-FRET MBNL1-His/biotin-(CUG)12 binding, 665/545 ratio; series mostly up to 57.5 µM
# Outline: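 MBNL1-His + Biotin-(CUG)12, cpd titration 92 nM–58 uM; Tb anti-His Ab 0.055 ng/ul, SA-XL665 5 nM (final); 60 min RT; ratiometric 665/545 nm, Ex 340 nm; normalized to buffer and full-complex controls.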
# Potency is the fitted concentration of half-maximal effect; tags give direction and shape of the fitted curve or compound fluorescence and quenching.
row,Compound,Potency
1,COC(=O)CCCC1=CC2=CC(=O)C(C)(OC(=O)c3cccs3)C(=O)C2=CN1Cc1ccc2c(c1)OCO2 (configuration not stated),"inconclusive: 28.2 µM [quencher, side channel, single point]"
2,CC1=C(C#N)C(c2ccc3ncccc3c2)C(C#N)=C(C)N1,"inconclusive: 31.6 µM [quencher, single point]"
3,O=c1[nH]c2cc(Br)cnc2nc1/C=C(\O)c1ccc(F)cc1,inactive
4,Nc1[nH]n(-c2ccccc2)c(=O)c1N=Nc1ccc2c(c1)OCO2,"inconclusive: 3.55 µM [quencher, side channel, full curve]"
5,COc1ccc(NC(=O)CCC(=O)NCc2ccco2)c([N+](=O)[O-])c1,"inconclusive: 15.8 µM [quencher, side channel, partial curve]"
6,COc1ccc(-n2nc(C(=O)NCC(=O)O)c3ccccc3c2=O)cc1,"inconclusive: 11.2 µM [quencher, side channel, partial curve, poor fit]"
7,O=C(CSc1ccccn1)Nc1ccc2c(c1)C(=O)c1ccccc1C2=O,"inconclusive: 3.55 µM [quencher, side channel, full curve]"
8,Cc1[nH]n2c(=O)c3c(nc2c1-c1ccccc1)CCC3,inactive
9,CN(C)CCCNC(=S)NCCNc1nc2cc3c(cc2cc1C#N)OCO3,"inconclusive: 28.2 µM [quencher, side channel, partial curve]"
10,CCc1cccc(NC(=O)CS(=O)Cc2nc(-c3ccc(C)cc3)oc2C)c1 (configuration not stated),inactive
11,CCn1nc(NS(=O)(=O)c2ccc([N+](=O)[O-])cc2)c2cc3cc(C)ccc3nc21,"inconclusive: 28.2 µM [quencher, side channel, single point]"
12,CC(=O)c1c(COC(=O)c2ccncc2)nc2ccccc2[n+]1[O-],"inconclusive: 6.31 µM [quencher, side channel, partial curve]"
13,O=C(c1cccc2ccccc12)N1CCN(c2ccc([N+](=O)[O-])c(N3CCOCC3)c2)CC1,"inconclusive: 31.6 µM [quencher, side channel, single point]"
14,C=CCSc1nnc(NC(=O)c2cccc(S(=O)(=O)N3CCOCC3)c2)s1,inactive
15,O=C1c2cccc3cccc(c23)C(=O)N1CCc1ccccc1,"inconclusive: 28.2 µM [quencher, side channel, single point]"
16,O=C(Nc1cccc(NC(=O)c2ccc(-c3ccc(Br)cc3)o2)c1)c1ccccc1,inactive
17,C=CCNC(=O)/C(=C\c1cccc([N+](=O)[O-])c1)NC(=O)c1ccccc1,"inconclusive: 39.8 µM [quencher, single point]"
